The full ranking holds about 16,000 sequences; the median of “Z-score” is about -0.37, and the highest 2% start at about 3.1. The list shows a part of the results.
tested on: RBM10 RRM1-ZnF-RRM2 (GST-tagged construct); assay: RNAcompete 7-mer binding Z-score; higher = stronger binding preference
How it was run: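 Bound RNA was identified by microarray hybridisation after GST-tagged RBM10 constructs (20 pmol) had been mixed with 1.5 nmol of a designed pool of 241 399 RNAs up to 41 nt, transcribed from microarray-derived DNA templates. Binding ran for 30 min at 4°C in 1 ml Hepes pH 7.8 buffer with KCl, NaCl, glycerol, DTT, BSA and glutathione Sepharose beads, with four 2-min washes at 4°C afterwards. For every heptamer motif, a one-sided Z-score for enrichment was computed across the probes that contained it.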

| Sequence | RNAcompete 7-mer binding Z-score |
| --- | --- |
| GAUGUGG | 2.88 |
| UGGAGAC | 1.6 |
| CUCUCGC | -0.814 |
| GGAGCUA | 1.01 |
| UAGCUCA | -0.664 |
| CCUACCG | -0.821 |
| AGCAAUC | -0.282 |
| UAGGCGG | 1.79 |
| CAUUUGG | -0.191 |
| GUACCCA | -0.643 |
| GGGGGCC | 1.36 |
| GGGACGG | 3.05 |
| UGCAAGG | 1.36 |
| CCCGCGC | -0.544 |
| CACUCUA | -0.788 |
| CCCUUCC | -0.715 |
| UUUCUAG | -0.592 |
| GGCGUAU | 0.345 |
| CUUAGAG | -0.395 |
| UGUCAGC | -0.439 |
| CGUAGUC | -0.439 |
| AUAACGU | -0.205 |
| AUCACAC | -0.704 |

| Sequence | RNAcompete 7-mer binding Z-score |
| --- | --- |
| CUCAACA | -0.704 |
| UGGUGAC | 0.931 |
| AGUCUGA | -0.318 |
| AGUGAGU | 0.996 |
| AAAAAAU | -0.129 |
| GUACAUC | -0.253 |
| UACAGAU | -0.198 |
| CUUUAGU | -0.766 |
| GGAUCGC | 0.538 |
| AGGUUAU | 0.65 |
| UGAUAUA | -0.366 |
| GGACGGA | 2.15 |
| UCGAAUC | -0.562 |
| UGCUGAC | -0.216 |
| GGUCCGC | -0.0561 |
| GGUGGUU | 2.03 |
| CCGGGGU | 1.71 |
| AAAGCUC | -0.53 |
| GGUACUC | -0.118 |
| AGUUACU | -0.439 |
| GGGUGCC | 1.84 |
| ACGAAGG | 2.87 |
| AGCUUAU | -0.73 |

| Sequence | RNAcompete 7-mer binding Z-score |
| --- | --- |
| UGAUCUU | -0.883 |
| AUACCGC | -0.755 |
| UAGUAGA | 0.388 |
| GGUUUUU | 0.472 |
| UGGGACU | 1.73 |
| UGUCUGC | -0.617 |
| AGAGCCC | -1.11 |
| UCGUAAG | -0.326 |
| GAUUGCU | -0.482 |
| CGGUUCU | -0.606 |
| GGAGUGA | 2.63 |
| AGAGUUA | 0.199 |
| ACAGCAG | 0.53 |
| UCGUCCA | -0.661 |
| AUUGUGG | 1.33 |
| AUUUAGC | -0.653 |
| CGUUACU | -0.504 |
| UCUAGUC | -0.632 |
| AUGUCGA | -0.347 |
| CAUCGGC | -0.493 |
| CGCUCAA | -0.566 |
| GGUUGGA | 2.81 |
| AGGUUGG | 2.71 |

| Sequence | RNAcompete 7-mer binding Z-score |
| --- | --- |
| CAAUCGC | -0.664 |
| UCGUCGC | -0.442 |
| GGCCAAU | 0.00944 |
| ACUGCAA | -0.628 |
| UUCUCGG | -0.57 |
| AGGUUGC | 0.556 |
| CUAACCU | -0.792 |
| GAUCCUU | -0.723 |
| GUCAGUU | -0.289 |
| UCUCGGG | -0.198 |
| UCAGCGA | -0.373 |
| UAUCAGU | -0.402 |
| UAGAGCG | 0.935 |
| CGUUAAA | -0.453 |
| CAAAGGA | 1.34 |
| UUUAGAC | -0.737 |
| GCAUGGG | 3.08 |
| GGCUGAA | 0.33 |
| UAAGCCA | -0.712 |
| CUUGUUA | -0.795 |
| AGCGUGA | 0.399 |
| UGCCACA | -0.497 |
| AGUUGAG | 1.16 |

| Sequence | RNAcompete 7-mer binding Z-score |
| --- | --- |
| UGUUGCC | -0.777 |
| UCCGGUA | -0.111 |
| CCCCAAU | -0.755 |
| CCUACGG | -0.446 |
| AUAGAAU | -0.111 |
| AUCAAGU | -0.318 |
| CACCGUC | -0.621 |
| CGUUCCU | -0.843 |
| AUCUAUC | -0.748 |
| GAGCUGG | 1.63 |
| GUAGUUA | 0.162 |
| GAGGAGU | 1.43 |
| ACUCUAC | -0.836 |
| GAGCGUG | 1.1 |
| AGCGACC | -0.256 |
| ACUACCA | -0.719 |
| UUUAGAU | -0.439 |
| UGUCAUU | -0.741 |
| GAAUCCG | -0.471 |
| UGUGACG | 0.315 |
| ACGUGCU | -0.672 |
| GGCAAUA | 1.13 |
| CUAGUCG | -0.555 |

| Sequence | RNAcompete 7-mer binding Z-score |
| --- | --- |
| GCCGUGG | 0.927 |
| AUCUCGU | -0.755 |
| GGACCCG | 0.246 |
| ACGAACA | 0.00944 |
| GCUGAUA | -0.278 |
| GGGGGCG | 2.58 |
| AACUUAU | -0.69 |
| CGCGCAG | 0.253 |
| AACGGAC | 0.647 |
| AAGACAA | 0.13 |
| ACGCCUU | -0.865 |
| AAAUGAU | 0.0313 |
| GAGACGC | -0.0452 |
| UCACUUG | -0.905 |
| AGAAGGG | 4.09 |
| ACAGGCA | 1.41 |
| UAAAUGA | -0.187 |
| GCCUCGA | -0.668 |
| CGAUCCU | -0.836 |
| AAUUGUA | -0.326 |
| UCACCGA | -0.643 |
| GAUAGCA | 0.232 |
| CUGACCG | -0.672 |

| Sequence | RNAcompete 7-mer binding Z-score |
| --- | --- |
| GCCAUUU | -1.01 |
| CUCCGGC | -0.759 |
| UAUCGCA | -0.65 |
| GCGCGGG | 2.1 |
| UUUCCGA | -0.672 |
| ACCAAAC | -0.519 |
| UGCGCUC | -0.653 |
| AUAGAGG | 1.79 |
| AGUAAUA | -0.18 |
| ACAAGUA | -0.154 |
| GACGGUU | 0.712 |
| GGGUGAA | 3.66 |
| AACAUUA | -0.202 |
| AAAGAGA | 0.778 |
| UGGCGGU | 1.54 |
| UACCUAG | -0.763 |
| CCACCAU | -0.664 |
| AUUAACC | -0.643 |
| UAUCGGU | -0.253 |
| GCGUUGG | 1.26 |
| GCGACUG | -0.027 |
| ACGGGGU | 3.8 |
| ACGGUGC | 0.348 |

| Sequence | RNAcompete 7-mer binding Z-score |
| --- | --- |
| UGUGUCC | -0.595 |
| CCACUCC | -0.792 |
| GACGGAU | 1.19 |
| CAAAGCG | 0.177 |
| CGUUAGG | 0.687 |
| ACCAGAA | -0.264 |
| CGGUACU | -0.122 |
| CGUCAGA | -0.347 |
| UACAUGU | -0.246 |
| UAUUACG | -0.311 |
| CACGUGU | -0.5 |
| ACCCCAC | -0.661 |
| GCGAAUA | 0.173 |
| UAUUUGG | -0.202 |
| AGCCCCC | -0.34 |
| GCUAUUG | -0.479 |
| GGUAGAC | 2.01 |
| CACAUUC | -0.715 |
| CCUCAGA | -0.832 |
| UCAAGCU | -0.621 |
| GCGUGAA | 0.61 |
| CCGACGU | -0.541 |
